Several values for one entry are separate records, joined by “and”; a condition that tells them apart may be missing. Equal entries are not always repeated.
Legend:
[1] = EDTA or DTPA challenge of purified 134Ce-labeled h11b6 conjugates (iTLC); assay type: physicochemical; conditions: 30 minutes, immediately after purification
Procedure: Immediately after purification, 25 μL of the purified product in vial ‘Elution’ was incubated with 50 μL of either 10 mM EDTA, pH˜6 or 10 mM DTPA, pH˜7 at 37° C. and 300 rpm for 30 minutes. 2 μL of the mixture was spotted on an TLC strip (SA) and eluted with a 10 mM EDTA solution (pH˜6).

[2] = Stability of purified 134Ce-labeled h11b6 conjugates stored at 2-8° C. (iTLC); assay type: physicochemical
Procedure: The purified ^134Ce-TOPA-h11b6 was stored at 2-8° C. Radiochemical purity was assessed by iTLC. The radiochemical purity at 4 h, was 99.1%, FIG. 15.
The purified ^134Ce-DOTA-h11b6 was stored at 2-8° C. Radiochemical purity was assessed by TLC. The radiochemical purity at 4 h was 96.3%, FIG. 16.

biotinyated hk2-FXa = assay: Immunoreactive fraction, hk2-coated Dynabeads; assay type: binding, human
Procedure: Preparation of the Control beads: To each of two 2 ml Eppendorf tubes labeled C1 and C2 rinsed with 1 mL of 1% PBSF and the rinsate discarded. To each rinsed tube was added 1% PBSF (300 uL). Into C1 and C2 was added Dynabeads Streptavidin T1 (MS 0013) (40 uL).
Preparation of the QC sample: Into a 2 ml Eppendorf tube was added 1 mL of 1% PBSF, rinsed and the rinsate discarded. A further aliquot of 1% PBSF (1000 uL) was added followed by a sample of 134Ce-TOPA-h11b6 (5 uL). The tube was capped and gently swirled.
Preparation of the reference vials: To each of three 2 ml Eppendorf tubes labeled RF1, RF2 and RF3 was added 1 mL of 1% PBSF and the rinsate discarded. To each rinsed tube was added 1% PBSF (700 uL). […]
Tubes RF1, RF2, RF3, BCK1, BCK2, BCK3, Cl, C1-SUP, C1R1, C1R2, C1BD, C2, C2-SUP, C2R1, C2R2, C2BD, P1, P1-SUP, P1R1, P1R2, P1BD, P2, P2-SUP, P2R1, P2R2 and P2BD were placed in a gamma counter and counted.
All measurements were background subtracted. The average reference counts were determined. Non-specific binding was calculated by dividing the average of C1BD and C2BD by the average reference RF1, RF2 and RF3 divided by 3. The total binding was calculated from the average of P1BD+P2BD divided by the average reference. The immunoreactivity was calculated by subtracting the total non-specific binding from the total binding and multiplying by 100. […]

B1: ^134Ce-TOPA-h11b6 (conjugate)
heavy: QVQLQESGPGLVKPSDTLSLTCAVSGNSITSDYAWNWIRQPPGKGLEWIGYISYSGSTTYNPSLKSRVTMSRDTSKNQFSLKLSSVTAVDTAVYYCATGYYYGSGFWGQGTLVTVSS[left out - human IgG1 constant region]
light: DIVLTQSPDSLAVSLGERATINCKASESVEYFGTSLMHWYQQKPGQPPKLLIYAASNRESGVPDRFSGSGSGTDFTLTISSLQAEDVAVYYCQQTRKVPYTFGQGTKLEIKRTVAAPSVFIFPPSDEQLKSGTASVVCLLNNFYPREAKVQWKVDNALQSGNSQESVTEQDSKDSTYSLSSTLTLSKADYEKHKVYACEVTHQGLSSPVTKSFNRGEC
intact radioconjugate after DTPA challenge ([1]; 10 mM DTPA pH~7, 37° C.): 89.0% and 89.4%
intact radioconjugate after EDTA challenge ([1]; 10 mM EDTA pH~6, 37° C.): 91.0% and 90.0%
radiochemical purity at 4 h [2]: 99.1%
Immunoreactive Fraction (IRF) (biotinyated hk2-FXa; 0 hr post synthesis): 95.5%
Immunoreactive Fraction (IRF) (biotinyated hk2-FXa; 24 hrs post synthesis): 96.5%

— patent US20250145646A1, “MACROCYCLIC COMPOUNDS AND DIAGNOSTIC USES THEREOF” (JANSSEN BIOTECH, INC., priority 2021, published 2025)
